Experimental data as given in PubChem BioAssay (NCI).
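Cells were grown in 96-well plates and exposed to each compound for 48 hours at five concentrations; endpoints were interpolated linearly between bracketing concentrations, or set to the highest concentration if not reached. TGI denotes the concentration required for complete inhibition of growth.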 Certain results were filed several times, with different values. They are shown here; other results are not. The source may hold further records. A record mostly stands for its own series of concentrations, which the source does not state; some values may only mark the edge of a range.

Columns and labels:
Test in all cases: inhibition of tumour cell growth, NCI panel, 48 h
[1] = system: NCI-H23 lung
[2] = system: KM12 colon
[3] = system: CAKI-1 renal
[4] = system: SW-620 colon
[5] = system: COLO 205 colon
[6] = system: HOP-62 NSCLC
[7] = system: LOX IMVI melanoma
[8] = system: HT29 colon
[9] = system: OVCAR-8 ovarian
[10] = system: RPMI-8226 leukemia
[11] = system: ACHN renal
[12] = system: MOLT-4 leukemia
[13] = system: HL-60(TB) leukemia
[14] = system: IGROV1 ovarian
[15] = system: NCI/ADR-RES ovarian
[16] = system: CCRF-CEM leukemia
[17] = system: SNB-19 CNS

CN(C)CCCNc1c2ccccc2nc2cccc([N+](=O)[O-])c12
TGI [1]: 1.56 nM and 16.9 nM | TGI [2]: 3.67 nM and 95.3 nM | TGI [3]: 3.73 nM and 356 nM | TGI [4]: 4.15 nM and 101 nM | TGI [5]: 1.37 nM and 18.3 nM | TGI [6]: 6.83 nM and 128 nM | TGI [7]: 4.86 nM and 53.4 nM | TGI [8]: 10.3 nM and 138 nM | TGI [9]: 4.84 nM and 140 nM | TGI [10]: 5.1 nM and 68.1 nM | TGI [11]: < 1 nM and 26.1 nM

Cc1cccc2nc3cccc(C(=O)NCCC[N+](C)(CCCNC(=O)c4cccc5nc6cccc(C)c6nc45)Cc4c([N+](=O)[O-])ncn4C)c3nc12
TGI [12]: 1.12 µM and > 1.1 mM | TGI [13]: 65.7 µM and > 1.1 mM

CC(=O)NC1C(OCc2ccccc2)OC(CO)C(O)C1OCC(=O)NC(C)C(=O)NC(CCC(=O)NCCCCCNc1c2ccccc2nc2cccc([N+](=O)[O-])c12)C(N)=O (stereo not drawn)
TGI [14]: 6.56 nM and 84.9 nM | TGI [15]: 146 nM and > 100 µM | TGI [16]: 285 nM and > 100 µM | TGI [12]: 5.35 nM and 1.74 µM | TGI [17]: 14.1 nM and 11.5 µM
